Measurements reported in the antibiotic and cytotoxicity screens of Wong et al. (2023).
Some of the results follow.

These compounds were tested on HSkMC (human skeletal muscle cells) (assay: cytotoxicity call (relative viability < 0.9)). Settings: 10 µM.

Row | Compound | cytotoxicity call
1 | C[C@@H]1CN([C@@H](C)CO)S(=O)(=O)c2ccc(C#Cc3ccncc3)cc2O[C@H]1CN(C)C(=O)Nc1ccc2c(c1)OCO2 | active
2 | COc1ccc(CN(C)C[C@@H]2OCCCC[C@H](C)Oc3ccc(NC(=O)Nc4c(C)noc4C)cc3C(=O)N([C@@H](C)CO)C[C@H]2C)cc1 | inactive
3 | C[C@@H]1CN([C@H](C)CO)C(=O)c2cccc(NC(=O)Nc3cccc4ccccc34)c2O[C@H]1CN(C)S(=O)(=O)c1ccc(F)cc1 | inactive
4 | C[C@@H]1CN([C@@H](C)CO)C(=O)c2cc(NC(=O)Cn3cnnn3)ccc2O[C@H]1CN(C)C(=O)Nc1ccccc1 | inactive
5 | C[C@H]1CCCCO[C@@H](CN(C)S(=O)(=O)c2cccs2)[C@@H](C)CN([C@@H](C)CO)C(=O)c2cc(NS(=O)(=O)c3cn(C)cn3)ccc2O1 | inactive
6 | CCNC(=S)N1CCC[C@H](C(N)=O)C1 | inactive
7 | COc1ccccc1NC(=O)N(C)C[C@H]1Oc2ncc(C#CC(C)C)cc2C(=O)N([C@H](C)CO)C[C@@H]1C | inactive
8 | CN1C(=O)c2cc(NS(C)(=O)=O)ccc2OC[C@H]2O[C@@H](CC(=O)N3CCOCC3)CC[C@H]21 | inactive
9 | O=C(O)c1c2ccccc2cc2ccccc12 | inactive
10 | C[C@H](CO)N1C[C@H](C)[C@@H](CN(C)S(=O)(=O)c2ccccc2)OCCCC[C@H](C)Oc2ccc(NC(=O)CCC(F)(F)F)cc2C1=O | inactive
